Laboratory results reported in the supplement of paper PMC12217912.
The list shows a part of the results. Sequences were assembled here from the parent chain. Inactive controls read about 0.05.

B1: TEV protease; numbered along this chain (parent)
chain: MGESLFKGPRDYNPISSSICHLTNESDGHTTSLYGIGFGPFIITNKHLFRRNNGTLVVQSLHGVFKVKDTTTLQQHLVDGRDMIIIRMPKDFPPFPQKLKFREPQREERICLVTTNFQTKSMSSMVSDTSCTFPSGDGIFWKHWIQTKDGQCGSPLVSTRDGFIVGIHSASNFTNTNNYFTSVPKNFMELLTNQEAQQWVSGWRLNADSVLWGGHKVFMVKPEEPFQPVKEATQL
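Further: Bxb1 expression induced with 0.2% (w/v) L-rhamnose at OD600 near 0.5, cultures sampled hourly, flipped fraction per protease–substrate barcode pair counted by paired-end Illumina sequencing.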

Variants of: B1
Assay: raw area under fraction-flipped curve 0-4 h after induction (AUC4h, not background-subtracted), DNA-recorder readout of cleavage of the substrate (dimensionless); higher = more cleavage of the substrate by the protease variant
Conditions: temperature: 34 °C; time window: 0-4 h after rhamnose induction
With R87W the “area with substrate ENLYGQS” value was 0.0627, the “area with substrate ENLYHQS” value was 0.0662 and the “area with substrate ENLYKQS” value was 0.0775. The “area with substrate ENLYLQS” value was 0.108, the “area with substrate ENLYMQS” value was 0.0682 and the “area with substrate ENLYQQS” value was 0.065. For the same variant, the “area with substrate ENLYRQS” value was 0.0575, the “area with substrate ENLYSQS” value was 0.0756 and the “area with substrate ENLYTQS” value was 0.0556. For the same variant, the “area with substrate ENLYWQS” value was 0.061 and the “area with substrate ENLYYQS” value was 0.0732. In the case of P93F, the “area with substrate ENLYGQS” value is reported as 0.0506, the “area with substrate ENLYHQS” value is reported as 0.0661 and the “area with substrate ENLYMQS” value is reported as 0.0738. For the same variant, the “area with substrate ENLYNQS” value was 0.0618, the “area with substrate ENLYPQS” value was 0.0583 and the “area with substrate ENLYRQS” value was 0.049. The “area with substrate ENLYSQS” value was 0.0694 and the “area with substrate ENLYYQS” value was 0.0399. With P93Y the “area with substrate ENLYGQS” value was 0.0809, the “area with substrate ENLYHQS” value was 0.0651 and the “area with substrate ENLYKQS” value was 0.0686. For the same variant, the “area with substrate ENLYPQS” value was 0.0789, the “area with substrate ENLYRQS” value was 0.0576 and the “area with substrate ENLYWQS” value was 0.0688. For the same variant, the “area with substrate ENLYYQS” value was 0.0673. In the case of N178W, the “area with substrate ENLYGQS” value is reported as 0.0792, the “area with substrate ENLYMQS” value is reported as 0.106 and the “area with substrate ENLYWQS” value is reported as 0.113. For F187L, the “area with substrate ENLYGQS” value was 0.0687, the “area with substrate ENLYHQS” value was 0.0644 and the “area with substrate ENLYKQS” value was 0.0419. The “area with substrate ENLYMQS” value was 0.089, the “area with substrate ENLYNQS” value was 0.0756 and the “area with substrate ENLYPQS” value was 0.0767. For the same variant, the “area with substrate ENLYQQS” value was 0.0415, the “area with substrate ENLYRQS” value was 0.067 and the “area with substrate ENLYSQS” value was 0.0902. The “area with substrate ENLYTQS” value was 0.106, the “area with substrate ENLYVQS” value was 0.0885 and the “area with substrate ENLYWQS” value was 0.0829. The “area with substrate ENLYYQS” value was 0.0672. With A196T the “area with substrate ENLYGQS” value was 0.0654, the “area with substrate ENLYHQS” value was 0.0673 and the “area with substrate ENLYIQS” value was 0.12. The “area with substrate ENLYKQS” value was 0.0654, the “area with substrate ENLYNQS” value was 0.0684 and the “area with substrate ENLYQQS” value was 0.0469. For the same variant, the “area with substrate ENLYRQS” value was 0.0616, the “area with substrate ENLYSQS” value was 0.0773 and the “area with substrate ENLYVQS” value was 0.135. For the same variant, the “area with substrate ENLYWQS” value was 0.0633 and the “area with substrate ENLYYQS” value was 0.0497. With P228D the “area with substrate ENLYGQS” value was 0.0636, the “area with substrate ENLYHQS” value was 0.0545 and the “area with substrate ENLYMQS” value was 0.0916. The “area with substrate ENLYRQS” value was 0.082, the “area with substrate ENLYVQS” value was 0.128 and the “area with substrate ENLYWQS” value was 0.0782. For K7E, the “area with substrate ENLYHQS” value was 0.0822, the “area with substrate ENLYKQS” value was 0.0671 and the “area with substrate ENLYMQS” value was 0.0834. For the same variant, the “area with substrate ENLYPQS” value was 0.0523, the “area with substrate ENLYRQS” value was 0.0661 and the “area with substrate ENLYWQS” value was 0.0825. For G8E, the “area with substrate ENLYHQS” value was 0.0784, the “area with substrate ENLYKQS” value was 0.0603 and the “area with substrate ENLYNQS” value was 0.0741. With Y34W the “area with substrate ENLYHQS” value was 0.0725. In the case of I84Q, the “area with substrate ENLYHQS” value is reported as 0.0552, the “area with substrate ENLYLQS” value is reported as 0.068 and the “area with substrate ENLYNQS” value is reported as 0.0577. The “area with substrate ENLYPQS” value was 0.043 and the “area with substrate ENLYSQS” value was 0.0758. In the case of P93R, the “area with substrate ENLYHQS” value is reported as 0.0707, the “area with substrate ENLYLQS” value is reported as 0.069 and the “area with substrate ENLYMQS” value is reported as 0.0556. For the same variant, the “area with substrate ENLYQQS” value was 0.0673, the “area with substrate ENLYTQS” value was 0.0753 and the “area with substrate ENLYVQS” value was 0.106. The “area with substrate ENLYWQS” value was 0.0948. With T115P the “area with substrate ENLYHQS” value was 0.0751, the “area with substrate ENLYLQS” value was 0.08 and the “area with substrate ENLYMQS” value was 0.0889. The “area with substrate ENLYNQS” value was 0.0594, the “area with substrate ENLYPQS” value was 0.0695 and the “area with substrate ENLYQQS” value was 0.0778. For the same variant, the “area with substrate ENLYTQS” value was 0.0756, the “area with substrate ENLYVQS” value was 0.112 and the “area with substrate ENLYYQS” value was 0.0649. In the case of F117W, the “area with substrate ENLYHQS” value is reported as 0.0692, the “area with substrate ENLYKQS” value is reported as 0.0438 and the “area with substrate ENLYMQS” value is reported as 0.09. The “area with substrate ENLYNQS” value was 0.0528, the “area with substrate ENLYQQS” value was 0.0636 and the “area with substrate ENLYSQS” value was 0.0741. With T147C the “area with substrate ENLYHQS” value was 0.0746, the “area with substrate ENLYIQS” value was 0.0935 and the “area with substrate ENLYKQS” value was 0.094. The “area with substrate ENLYNQS” value was 0.0619, the “area with substrate ENLYSQS” value was 0.0413 and the “area with substrate ENLYTQS” value was 0.0615. The “area with substrate ENLYWQS” value was 0.0807. In the case of N172K, the “area with substrate ENLYHQS” value is reported as 0.0818, the “area with substrate ENLYKQS” value is reported as 0.0488 and the “area with substrate ENLYPQS” value is reported as 0.0546. The “area with substrate ENLYTQS” value was 0.0644. In the case of P104Q, the “area with substrate ENLYIQS” value is reported as 0.0465, the “area with substrate ENLYKQS” value is reported as 0.0378 and the “area with substrate ENLYNQS” value is reported as 0.0414. For the same variant, the “area with substrate ENLYPQS” value was 0.0227, the “area with substrate ENLYRQS” value was 0.0583 and the “area with substrate ENLYSQS” value was 0.0522. For C131Y, the “area with substrate ENLYIQS” value was 0.185, the “area with substrate ENLYMQS” value was 0.063 and the “area with substrate ENLYRQS” value was 0.0708. The “area with substrate ENLYSQS” value was 0.0752. In the case of E189S, the “area with substrate ENLYIQS” value is reported as 0.125, the “area with substrate ENLYKQS” value is reported as 0.0736 and the “area with substrate ENLYNQS” value is reported as 0.0649. For the same variant, the “area with substrate ENLYQQS” value was 0.0446, the “area with substrate ENLYRQS” value was 0.0687 and the “area with substrate ENLYVQS” value was 0.0975. The “area with substrate ENLYYQS” value was 0.0563. With P134K the “area with substrate ENLYKQS” value was 0.0653, the “area with substrate ENLYMQS” value was 0.0737 and the “area with substrate ENLYNQS” value was 0.0917. The “area with substrate ENLYPQS” value was 0.0691, the “area with substrate ENLYQQS” value was 0.0597 and the “area with substrate ENLYWQS” value was 0.0809. With N175W the “area with substrate ENLYKQS” value was 0.0895, the “area with substrate ENLYNQS” value was 0.0578 and the “area with substrate ENLYPQS” value was 0.054. For the same variant, the “area with substrate ENLYQQS” value was 0.0538, the “area with substrate ENLYRQS” value was 0.0582 and the “area with substrate ENLYSQS” value was 0.0595. In the case of N186I, the “area with substrate ENLYKQS” value is reported as 0.0603, the “area with substrate ENLYMQS” value is reported as 0.0414 and the “area with substrate ENLYTQS” value is reported as 0.0737. For the same variant, the “area with substrate ENLYWQS” value was 0.0536. For N193D, the “area with substrate ENLYKQS” value was 0.064, the “area with substrate ENLYNQS” value was 0.0671 and the “area with substrate ENLYPQS” value was 0.0594. For the same variant, the “area with substrate ENLYRQS” value was 0.0696, the “area with substrate ENLYWQS” value was 0.0594 and the “area with substrate ENLYYQS” value was 0.0682. For V58Q, the “area with substrate ENLYVQS” value was 0.0335. In the case of F92R, the “area with substrate ENLYWQS” value is reported as 0.0552.
